According to article PMC4336329 (PLoS ONE, 2015):
Hit rate of the full screen: of about 310,000 compounds, about 2,200 (0.71%) showed an effect of 50% or more. The effect is printed as a negative number. This is one part of the list.

What follows are molecules tested against human ether-à-go-go-related gene (hERG) potassium channel (human, UniProt Q12809) (assay: primary screen, population patch clamp on CHO cells stably expressing hERG).
Sequence of human ether-à-go-go-related gene (hERG) potassium channel (Q12809 whole entry, looked up): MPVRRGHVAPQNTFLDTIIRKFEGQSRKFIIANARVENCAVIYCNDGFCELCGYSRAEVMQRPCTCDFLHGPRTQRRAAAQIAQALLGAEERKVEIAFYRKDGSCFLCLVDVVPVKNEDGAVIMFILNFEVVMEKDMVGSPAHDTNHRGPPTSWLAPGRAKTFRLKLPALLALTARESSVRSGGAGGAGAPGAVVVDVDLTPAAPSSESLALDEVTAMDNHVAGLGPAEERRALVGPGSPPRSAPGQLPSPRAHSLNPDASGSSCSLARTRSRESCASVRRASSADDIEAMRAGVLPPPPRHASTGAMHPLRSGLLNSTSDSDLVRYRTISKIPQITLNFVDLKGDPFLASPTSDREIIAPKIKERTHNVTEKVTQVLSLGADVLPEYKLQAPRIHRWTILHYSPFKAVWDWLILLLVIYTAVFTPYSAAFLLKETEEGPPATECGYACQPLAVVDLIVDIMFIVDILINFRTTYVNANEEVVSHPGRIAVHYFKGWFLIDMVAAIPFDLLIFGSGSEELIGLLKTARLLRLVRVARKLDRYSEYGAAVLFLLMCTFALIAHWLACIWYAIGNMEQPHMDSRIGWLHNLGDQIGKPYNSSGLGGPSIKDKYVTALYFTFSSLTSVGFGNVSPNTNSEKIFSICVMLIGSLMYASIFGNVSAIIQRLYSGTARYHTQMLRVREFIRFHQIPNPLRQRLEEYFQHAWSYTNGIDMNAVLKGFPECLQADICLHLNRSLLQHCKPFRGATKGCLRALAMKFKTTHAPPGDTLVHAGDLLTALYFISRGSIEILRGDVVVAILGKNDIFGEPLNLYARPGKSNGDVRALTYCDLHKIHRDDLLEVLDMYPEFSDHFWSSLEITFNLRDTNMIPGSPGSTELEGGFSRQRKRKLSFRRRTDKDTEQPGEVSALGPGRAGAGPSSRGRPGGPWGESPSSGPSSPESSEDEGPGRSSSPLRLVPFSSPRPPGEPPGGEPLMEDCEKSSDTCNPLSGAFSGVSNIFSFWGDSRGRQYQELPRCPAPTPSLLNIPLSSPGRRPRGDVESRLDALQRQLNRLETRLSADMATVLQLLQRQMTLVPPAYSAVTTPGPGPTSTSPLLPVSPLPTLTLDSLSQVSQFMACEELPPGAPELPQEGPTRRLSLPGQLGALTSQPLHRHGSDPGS

SMILES	hERG current change (%, negative = inhibition) at 1uM
CN(C)c1cc(=O)n2c(n1)SCCC2	6.86%
Cc1ccc(NC(=O)C2CCN(S(=O)(=O)c3ccc4c(c3)oc(=O)n4C)CC2)cc1	16.7%
CCOC(CNc1ncnc2c1cnn2C)OCC	17%
COc1cccc(CN(C)C(=O)C(Cc2ccccc2)NC(=O)c2ccccc2)c1OC (centres unmarked)	5.29%
Cc1ccc(CN2CCC(C(=O)Nc3cccc(-c4cccc(F)c4)c3)CC2)o1	-28.7%
CCc1ccc(NC2CC(=O)N(c3ccc(OC)cc3OC)C2=O)cc1 (centres unmarked)	8.18%
CC(=O)Nc1ccc(SCC(=O)c2cc(C)n(Cc3cccs3)c2C)cc1	6.82%
Cc1cc(-n2c(C)c3c(C)nnc(C)c3c2C)ccc1N	13.9%
NC(=S)N/N=C/C=C/c1ccccc1	5.47%
CCOc1cc(/C=N/NC(=O)C(OC)c2ccccc2)ccc1O (centres unmarked)	12.4%
Cn1c(=O)cc(SCC(=O)NCCCN2CCOCC2)c2ccccc21	-3.66%
O=C(CSCc1ccc(Br)cc1)Nc1ccc(S(=O)(=O)N2CCOCC2)cc1	11.5%
O=C(O)Cc1nc2nc3c(c(=O)n2[nH]1)CCCC3	17.8%
Cc1ccc(NC(=O)CCC(=O)OCC(F)(F)C(F)F)cc1	17.3%
CC(C)[C@H](NC(=O)N1CCn2c1nc1ccccc12)C(=O)N[C@@H](Cc1ccccc1)C(=O)O	11%
CC(NC(=O)c1ccc(Br)o1)c1ccccc1 (centres unmarked)	3.01%
COc1ccccc1CNc1ccc2nnc(CCNC(=O)c3ccc(C)cc3)n2n1	2.15%
CCc1cccc(NC(=O)c2ccc(NS(=O)(=O)c3c(C)noc3C)cc2)c1	-6.03%
Cc1c(NS(=O)(=O)c2ccccc2F)c(=O)n(-c2ccccc2)n1C	8.14%
COc1c2c(cc3ccc(=O)oc13)CCO2	13.8%
O=C(CCN1C(=O)/C(=C/c2ccccc2)SC1=S)NC1CCS(=O)(=O)C1 (centres unmarked)	9.25%
Cc1cc(C)nc(NS(=O)(=O)c2ccc(N/C=C/C(=O)c3ccc(Cl)c(Cl)c3)cc2)n1	18.7%
Cc1cccc(OCCCC(=O)NC(C)c2ccccc2)c1 (centres unmarked)	9.86%

SMILES	hERG current change (%, negative = inhibition) at 1uM
Cc1ccc(S(=O)(=O)CCc2nnc(N)s2)cc1	16.5%
O=C(CCSc1nc(-c2ccc3c(c2)OCO3)cc(C(F)(F)F)n1)NCc1ccco1	8.5%
OC(CN1CCOCC1)CN1CCOCC1	7.81%
Cc1ccc(C(=O)N2CCN3C(=O)c4ccccc4C23c2ccccc2)cc1 (centres unmarked)	11.2%
COc1ccc2c(c1OC)C[N+]1([O-])CCc3cc4c(cc3C1C2)OCO4 (centres unmarked)	7.22%
Cc1cnc(C(=O)Nc2ccc(-n3cnnn3)cc2)cn1	6.41%
Cc1ccsc1/C=N\NC(=O)CC(=O)NCc1ccccc1	13.8%
CC(=O)Nc1ccccc1C(=O)N1CCN(Cc2ccccc2)CC1	9.12%
O=c1c2ccccc2oc2ccc(NCCCN3CCOCC3)cc12	-3.35%
COc1cccc(-c2ccc(=O)n(CC(=O)Nc3ccc(C(=O)N4CCCC4)cc3)n2)c1	0.542%
Cc1cccc2c(=O)c(C(=O)N3CCCCCC3)c[nH]c12	1.15%
CCc1ccc(C(=O)NNC(=O)c2n[nH]c(=O)c3ccccc23)cc1	12.7%
O=C(CCCN=C1NS(=O)(=O)c2ccccc21)OCC(=O)c1ccc(F)cc1	-3.82%
Nc1c(C(=O)NC23CC4CC(CC(C4)C2)C3)sc2nc3c(c(C(F)(F)F)c12)CCC3	11.2%
C=CCN1C(=Nc2cccnc2)SCC1(O)c1ccc(C)cc1 (centres unmarked)	15%
Cc1ccc(NC(=O)/C(=C\c2cccnc2)NC(=O)c2ccco2)cc1	0.391%
CN(C)S(=O)(=O)c1ccc(N2CCCC2)c(C(=O)NNC(=O)COc2cccc(F)c2)c1	3.37%
CC(C)(C)C1=Nn2c(nnc2-c2n[nH]c3c2CCC3)SC1	-0.697%
O=C(NCc1ccc2c(c1)OCO2)c1ccc(S(=O)(=O)NCC2CCCO2)cc1 (centres unmarked)	2.21%
O=C(CSc1nnc(-c2ccc(C(F)(F)F)cn2)o1)Nc1cccc(Cl)c1	9.82%
Nn1c(SC/C=C/c2ccccc2)nnc1-c1ccncc1	3.32%
Cc1cc(OCC(=O)Nc2ccc(CN3CCOCC3)cc2)c2c(C)cc(=O)oc2c1	11.8%
NC(=O)COC(=O)c1cc(-c2cccs2)nn1-c1ccccc1	9.43%

SMILES	hERG current change (%, negative = inhibition) at 1uM
Cc1cccc(NC(=O)CSCC(=O)N2CCN(C(=O)c3ccco3)CC2)c1	0.116%
CCN(CC)S(=O)(=O)N1CCC(C(=O)NCC2COc3ccccc3O2)CC1 (centres unmarked)	-2.04%
O=C(Cc1ccccc1[N+](=O)[O-])Nc1ccccc1C(=O)N1CCCC1	7.22%
O=C(Nc1ccccc1F)Nc1cccc2ccc(O)cc12	11.7%
C/C(CC(=O)Nc1ccc(N(C)C)cc1)=N\NC(=O)C(=O)NCc1ccccc1	14.8%
Cc1ccc(NCC(=O)N/N=C/c2c[nH]c3ccccc23)cc1	19.9%
COc1ccccc1-n1c([S-])c(C(=O)Nc2ccccc2C(F)(F)F)[n+]2ccc(C(=O)NCCO)cc12	12.9%
O=C(Nc1ccc2c(c1)OCCO2)C1CCN(C(=O)c2ccc([N+](=O)[O-])cc2)CC1	-16.3%
CC(=O)N1c2ccc(S(=O)(=O)N3CCC(C(=O)Nc4cc(C)cc(C)c4)CC3)cc2CC1C (centres unmarked)	8.12%
Cc1cccc(CSCCNC(=O)c2ccc(CN3CCOCC3)cc2)c1	0.897%
COc1ccc(/C=N\NC(=O)CCc2c(C)n[nH]c2C)c(OC)c1OC	19.5%
CCc1cc(=O)oc2cc(OCC=C(C)C)ccc12	9.72%
COc1ccc2cc(C(=O)C3CCCN(C(=O)/C=C/c4ccccn4)C3)ccc2c1 (centres unmarked)	4.07%
COc1ccc2oc(=O)c(C(=O)N3CCCC3)cc2c1	10.9%
COc1ccc(-c2nnc(SCC(=O)c3ccc[nH]3)n2-c2ccccc2)cc1	8.98%
COc1cc(N(C)C)c([N+](=O)[O-])cc1C(=O)NC(C)CNc1ccc([N+](=O)[O-])cc1Cl (centres unmarked)	13.4%
COc1ccc(NC(=O)C(=O)NCC2CCCN2S(=O)(=O)c2ccc(C)cc2)cc1 (centres unmarked)	14.9%
CC(=O)c1ccc(C(=O)N2CCc3c([nH]c4ccccc34)C2c2ccccn2)s1 (centres unmarked)	6.34%
O=c1[nH]c(O)c(/C=C2\C=NN=C2c2ccccc2)c(=O)[nH]1	6.55%
Cc1onc(-c2ccccc2)c1C(=O)N1CCOCC1	2.95%
CC1CCN(CCCNC(=O)c2cc3sccc3n2C)CC1	-23.6%
CC(C)C12CN3CCN(CC(C3)C1O)C2 (centres unmarked)	5.46%
Cc1ccc(NC(=O)CN(C)CCOc2ccccc2)c([N+](=O)[O-])c1	15.7%

SMILES	hERG current change (%, negative = inhibition) at 1uM
C/C=C(\C)C(=O)NCCN1C2=NC[C@H](Cc3ccccc3)N2C[C@H]1Cc1ccc(O)cc1	6.68%
CCCC(=O)Nc1nnc(SCC(=O)NC2CC2)s1	16.5%
COc1cccc(CN(C)C(=O)c2cccc(OC3CCN(C4CCCC4)CC3)c2)c1	-0.752%
CN(C)/C=C1/OC(=O)C(C#N)=C1c1ccc(Cl)cc1	10.7%
COc1cc(NC(=O)CCN2CCN(CCO)CC2)cc(OC)c1	7.44%
COc1cccc(/C=C/C(=O)Nc2ccc(OC)nc2)c1	-0.476%
Cc1cccc(-n2cc(CNCCc3nc(C)cc(C)n3)c(-c3cccc(F)c3)n2)c1	3.59%
O=C(CCC(=O)N1CCSc2ccccc21)NCc1cccc(Br)c1	0.3%
C=CCN(c1ccc(C(=O)NCCSc2ccccc2)cc1)S(C)(=O)=O	8.81%
Cn1nccc1NC(=O)c1nccnc1C(=O)O	8.5%
Cc1occc1C(=O)NCc1cccs1	-9.01%
CC(C)n1ncc2c(C(=O)Nc3ccc(CC#N)cc3)cc(C3CC3)nc21	8.76%
COc1cc(/C=N/NC(=O)CCn2nnc3ccccc32)ccc1O	14.9%
COc1ccccc1NC(=O)c1cnc(SCC(=O)NCC2CCCO2)n(C)c1=O (centres unmarked)	-0.498%
Cc1ccsc1CNCCc1ccc(F)cc1	5.17%
COc1ccc(CN2CCNC(=O)C2CC(=O)NCc2cn[nH]c2-c2ccccc2)c(F)c1 (centres unmarked)	-5.27%
CCCCOc1ccc(C(=O)NCC(=O)OC2CCOC2=O)cc1 (centres unmarked)	5.23%
CCOC(=O)c1c(NC(=O)CN2C(=O)NC3(CCCC3)C2=O)sc(C)c1CC	0.638%
CSc1ncccc1C(=O)NC1CCN(Cc2ccccc2)CC1	3.68%
COC(=O)C1CSC(C(=O)OC)N1C(=O)Nc1ccc(Cl)cc1 (centres unmarked)	10.2%
